Results taken from PubChem BioAssay AID686979 (National Center for Advancing Translational Sciences (NCATS), 2013).
In all, about 420,000 compounds went through this assay and about 50,000 (12%) were called active. The inconclusive results got no clear call from the source; some entries with a clear call stand among them for comparison. The call rests on the fitted dose curve; in most records, active means well fitted inhibition curve with a large enough effect; inconclusive means small, poorly fitted or top-dose-only effect; inactive means flat fitted curve, though single readings scatter. No potency is given beside an inconclusive call; the fits are too rough.

Assay: qHTS for Inhibitors of human tyrosyl-DNA phosphodiesterase 1 (TDP1): qHTS in cells in presence of CPT; further: nearly all actives have a fitted effect of over 55% in size
Conditions: chicken DT40 Tdp1-/-;hTDP1 cells + 20 nM CPT, ATP luminescence, 48 h; activity change, negative = growth inhibition: at 46.2 µM (top of the series) unless noted
Method in brief: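 Chicken DT40 Tdp1-/- cells complemented with human TDP1, 400 cells/well, exposed to compounds plus 20 nM camptothecin for at least 48 h at 37 C; viability read as ATP content by CellTiter-Glo luminescence.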
On the % scale 0 is the no-effect control and ±100 the full control effect; potency means the concentration at half of the fitted maximal effect; tags describe the fitted curve by direction and shape.

Q: For `Cc1cccc(CN2CCN(CC(=O)NCCCN3CCCC3=O)C2=O)c1`, which “activity change, negative = growth inhibition” value is on record?
A: inactive: 4.18%

Q: For `CCS(=O)(=O)c1c([N+](=O)[O-])ncn1C`, which Potency is on record?
A: active: 5.17 µM

Q: With `COc1cc(O)ccc1/C=N/NC(=O)c1ccc([N+](=O)[O-])cc1` as the compound, how does the “activity change, negative = growth inhibition” value read?
A: inactive: 5.98%

Q: With `CCOC(=O)c1ccc(NC(=O)c2ncn3c2C(=O)NC[C@@H]3C)cc1` as the compound, how does the Potency read?
A: inconclusive [inhibitor, single point]

Q: Which “activity change, negative = growth inhibition” value does the source give for `COCCn1c(SC(C)C(=O)NCC2CCCO2)nc2sc3c(c2c1=O)CCC3` (configuration not stated) here?
A: inactive: -24.6%

Q: With `COc1cc(OC)c(C2C(C(=O)Nc3ccc(C)cc3C)=C(C)Nc3ncnn32)cc1OC` (configuration not stated) as the compound, how does the Potency read?
A: inconclusive [inhibitor, single point]

Q: Which “activity change, negative = growth inhibition” value does the source give for `CC1(C(=O)NS(=O)(=O)c2ccccc2C(F)(F)F)CCN1C(=O)CC1CCCCC1` (configuration not stated) here?
A: inactive: 1.65%

Q: For `CCOC(=O)c1c(C)[nH]c(C(=O)OCC(=O)NCc2ccc(OC)c(OC)c2)c1C`, which Potency is on record?
A: active: 8.2 µM

Q: With `COc1ccccc1C1=NNC(=NCc2ccccc2)SC1` as the compound, how does the “activity change, negative = growth inhibition” value read?
A: inactive: 12.6%

Q: With `N#CC1=C(N)N2C(=C(C#N)C1c1cccc(Br)c1)Nc1ccccc12` (configuration not stated) as the compound, how does the Potency read?
A: active: 3.66 µM

Q: For `COC(=O)c1sccc1S(=O)(=O)N1CCN(c2ccc(C)cc2C)CC1`, which Potency is on record?
A: inconclusive [inhibitor, single point]

Q: With `CN(Cc1ccccc1)C1=CC(=[N+]2CCCCC2)CC(C)(C)C1` as the compound, how does the Potency read?
A: active: 0.146 µM

Q: Which Potency does the source give for `COc1ccc(C(C(=O)NC2CCCC2)N(Cc2ccco2)C(=O)c2snc(C(N)=O)c2N)cc1OC` (configuration not stated) here?
A: inconclusive [inhibitor, single point]

Q: For `Cc1c(Cl)cccc1NC(=O)N1CCOc2ccccc21`, which “activity change, negative = growth inhibition” value is on record?
A: inactive: -15.5%

Q: Which Potency does the source give for `CCOc1ccc(CNC(=O)C2CCN(C(=O)N3CC(CC)Oc4ccccc43)CC2)cc1` (configuration not stated) here?
A: active: 14.6 µM

Q: For `COc1ccc(-c2cc(C(=O)N3CCN(c4ccccc4)CC3)c3ccccc3n2)cc1OC`, which Potency is on record?
A: inconclusive [inhibitor, single point]

Q: For `Cc1nc2ccccc2c(=O)[nH]1`, which Potency is on record?
A: inconclusive [inhibitor, partial curve]

Q: Which Potency does the source give for `CCOc1cc(/C=C2/C(=N)N3N=C(C)SC3=NC2=O)ccc1OS(=O)(=O)c1ccc(C)cc1` here?
A: inconclusive [inhibitor, single point]

Q: With `COc1ccc(C2=NN(C(C#N)c3ccc(OC)cc3)C(c3ccccc3)C2)cc1` (configuration not stated) as the compound, how does the Potency read?
A: inconclusive [inhibitor, single point]

Q: Which Potency does the source give for `CC1CCCC(C)N1C(=O)c1cccc2c1-c1ccccc1/C2=N/O` (configuration not stated) here?
A: inconclusive [inhibitor, partial curve]

Q: With `Cn1c(=O)cc(SCC(=O)N2CCN(C3CCCCC3)CC2)c2ccccc21` as the compound, how does the activity change, negative = growth inhibition read?
A: inconclusive: -31.6% [inhibitor]

Q: For `Cc1ccc(S(=O)(=O)N2CC(CO)=CCC2c2ccccc2)cc1` (configuration not stated), which Potency is on record?
A: inconclusive [inhibitor, single point]

Q: With `C1=C(CCNC2=NCCCCC2)CCCC1` as the compound, how does the “activity change, negative = growth inhibition” value read?
A: inactive: -23.2%

Q: For `CC(C)(C)c1ccc(C(=O)NC2(C(F)(F)F)NC(=O)N(CCc3ccccc3)C2=O)cc1` (configuration not stated), which Potency is on record?
A: active: 20.6 µM

Q: With `CCCNS(=O)(=O)c1ccc(CCC(=O)NCc2ccco2)cc1` as the compound, how does the Potency read?
A: inconclusive [inhibitor, single point]

Q: With `CCCCC[C@H]1CN(Cc2ccccc2)C(=O)[C@@H]1CC(=O)NCc1ccccc1` as the compound, how does the Potency read?
A: active: 11.2 µM

Q: For `CCCNC(=O)c1ccccc1NC(=O)c1nsc2ccccc12`, which Potency is on record?
A: inconclusive [inhibitor, single point]

Q: With `COc1ccc(Nc2nc(N)nc(CSC(=S)N3CCC(C)CC3)n2)cc1` as the compound, how does the “activity change, negative = growth inhibition” value read?
A: inactive: -19.7%

Q: With `OCCC1CN(Cc2nc3ccccc3s2)CCN1CCc1ccccc1` (configuration not stated) as the compound, how does the Potency read?
A: inconclusive [inhibitor, single point]

Q: For `CC(C)CC[n+]1ccn(-c2nc3ccccc3nc2[N-]S(=O)(=O)c2ccc(Cl)cc2)c1`, which “activity change, negative = growth inhibition” value is on record?
A: inactive: 4.47%

Q: With `Cc1ccc(OCC(=O)Nc2ccc3nc(SCC(=O)Nc4ccc(C)cc4C)sc3c2)cc1` as the compound, how does the Potency read?
A: inconclusive [inhibitor, partial curve]

Q: For `O=C(NN=Cc1ccccc1C(=O)O)c1cccc(S(=O)(=O)Nc2cccc(C(F)(F)F)c2)c1`, which “activity change, negative = growth inhibition” value is on record?
A: inactive: -5.45%

Q: Which “activity change, negative = growth inhibition” value does the source give for `CCOC(=O)C1=C(C)NC(=O)NC1c1cc(C)sc1C` (configuration not stated) here?
A: inactive: -11.6%

Q: For `CCOc1cc(C(=O)NC)cc(Br)c1OCc1ccccc1`, which Potency is on record?
A: inconclusive [inhibitor, single point]

Q: With `COc1cc(/C=C2\C(=O)ON=C2c2ccccc2)cc(Br)c1O` as the compound, how does the Potency read?
A: active: 6.51 µM

Q: With `O=C(COc1cccc(Br)c1)N/N=C/c1ccc2c(c1)OCCO2` as the compound, how does the “activity change, negative = growth inhibition” value read?
A: inactive: 4.71%

Q: Which Potency does the source give for `CCN(CC)S(=O)(=O)c1cccc(NC(=O)c2cccc(S(=O)(=O)N3CCCC3)c2)c1` here?
A: inconclusive [inhibitor, single point]
